The source of these data is the supplement of paper PMC11348887.

Where a name gives a salt, the structure may show the parent alone. This is one part of the list. Cut-off read from the data, not from the text of the source: active = -2 or less and inactive = the rest. Single values are uncertain, as repeats are few or missing.
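Note: nuclei counted from DAPI counterstain by automated high-content image analysis, four fields per well at ×20 in 384-well plates, with sequential b-score then z-score normalization.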

The test system of the experiment is hPSC-derived cortical neurons (WA09). Briefly: nuclei number (viability) z-score; higher = more surviving cells. To be noted: 5 µM; treatment: days 7-14 after plating, readout day 21.
With `NCc1c[nH]c(=S)n1[C@@H]1CCc2c(F)cc(F)cc2C1` [(R)-Nepicastat HCl], the “nuclei number (z-score)” value is inactive: -0.14. With `OC(CCN1CCCCC1)(c1ccccc1)C1CCCCC1` (stereo unspecified) [Trihexyphenidyl hydrochloride], the “nuclei number (z-score)” value is inactive: 0.68. For `Cc1ccc2c(Cl)cc(Cl)c(O)c2n1` [Chlorquinaldol], the “nuclei number (z-score)” value is inactive: 1.03.

As for `N=C(N)N/N=C/c1c(Cl)cccc1Cl` [Guanabenz Acetate], the “nuclei number (z-score)” value is inactive: -0.528. Take `CN(C)c1ccc2c(c1)Sc1cc(N(C)C)ccc1N2` [TRx0237 (LMTX) mesylate]: the “nuclei number (z-score)” value is active: -6.09. Regarding `O=C(OCc1ccccc1)c1ccccc1` [Benzyl benzoate], the “nuclei number (z-score)” value is inactive: 0.894.

As for `COc1ccc(C(=O)NCc2ccc(OCCN(C)C)cc2)cc1OC` [Itopride hydrochloride], the “nuclei number (z-score)” value was inactive: -0.676. Turning to `Cc1cc(Nc2nc(N[C@@H](C)c3ncc(F)cn3)ncc2Cl)[nH]n1`, the “nuclei number (z-score)” value is inactive: 0.635.

For `COC[C@H](NC(=O)c1cnc(C)s1)C(=O)N[C@@H](COC)C(=O)N[C@@H](Cc1ccccc1)C(=O)[C@@]1(C)CO1` [Oprozomib (ONX 0912)], the “nuclei number (z-score)” value was active: -4.77.

For the compound `CCCCC(=O)N(Cc1ccc(-c2ccccc2-c2nnn[nH]2)cc1)[C@H](C(=O)O)C(C)C.CCOC(=O)[C@H](C)C[C@@H](Cc1ccc(-c2ccccc2)cc1)NC(=O)CCC(=O)O`, the “nuclei number (z-score)” value is inactive: 0.478.

Take `OC[C@H]1O[C@@H](O[C@@H]2[C@@H](CO)OC(O)(CO)[C@H]2O)[C@H](O)[C@@H](O)[C@H]1O` (mixture of isomers) [Lactulose]: the “nuclei number (z-score)” value is inactive: 0.44. In the case of `CC[C@@H]1/C=C(\C)C[C@H](C)C[C@H](OC)[C@H]2O[C@@](O)(C(=O)C(=O)N3CCCC[C@H]3C(=O)O[C@H](/C(C)=C/[C@@H]3CC[C@H](Cl)[C@H](OC)C3)[C@H](C)[C@@H](O)CC1=O)[C@H](C)C[C@@H]2OC` [Pimecrolimus], the “nuclei number (z-score)” value is inactive: -0.685. In the case of `CCC1(c2c[nH]cn2)Cc2ccccc2C1` [Atipamezole hydrochloride], the “nuclei number (z-score)” value was inactive: -0.442.

As to `CCC1(c2c[nH]cn2)Cc2ccccc2C1` [Atipamezole], the “nuclei number (z-score)” value was inactive: 0.651.

As to `CN(C)[C@@H]1C(O)=C(C(N)=O)C(=O)[C@@]2(O)C(O)=C3C(=O)c4c(O)ccc(Cl)c4[C@@H](O)[C@H]3C[C@@H]12` [Demeclocycline HCl], the “nuclei number (z-score)” value is inactive: 0.712. The same measure for `O=C(O)CC1CC(c2ccccc2)=NO1` (stereo unspecified): inactive: -0.0578; for `CCN(c1cc(-c2ccc(CN3CCOCC3)cc2)cc(C(=O)NCc2c(C)cc(C)[nH]c2=O)c1C)C1CCOCC1`: inactive: 0.819; for `Cn1c([N+](=O)[O-])cnc1COC(N)=O` [Ronidazole]: inactive: -1.01. With `CC1CCc2c(N3CCC(O)CC3)c(F)cc3c(=O)c(C(=O)O)cn1c23` (stereo unspecified) [Nadifloxacin], the “nuclei number (z-score)” value is inactive: 2.93. On to `Cc1ccc(-c2ncc(Cl)cc2-c2ccc(S(C)(=O)=O)cc2)cn1` [Etoricoxib], for which the “nuclei number (z-score)” value was inactive: -0.535. For `CC(C)(C)C[C@@H]1N[C@@H](C(=O)N[C@H]2CC[C@H](O)CC2)[C@H](c2cccc(Cl)c2F)[C@]12C(=O)Nc1cc(Cl)ccc12`, the “nuclei number (z-score)” value was active: -4.45. Turning to `O=c1c2ccccc2oc2ccccc12` [Xanthone], the “nuclei number (z-score)” value was inactive: 1.21. Turning to `CO[C@H]1O[C@@H]2O[C@@]3(C)CC[C@H]4[C@H](C)CC[C@@H]([C@H]1C)[C@@]24OO3` [Artemether], the “nuclei number (z-score)” value was inactive: 0.221. `Cn1ncc(Cl)c1-c1cc(C(=O)N[C@H](CN)Cc2cccc(F)c2)sc1Cl`: the “nuclei number (z-score)” value was active: -2.35. On to `NC12CC3CC(CC(C3)C1)C2` [Amantadine HCl], for which the “nuclei number (z-score)” value was inactive: -0.38. `CCCN(CCc1cccs1)[C@H]1CCc2c(O)cccc2C1` [Rotigotine]: the “nuclei number (z-score)” value was inactive: -0.123. Consider `Cc1cc(=O)n(-c2ccccc2)n1C` [Antipyrine], for which the “nuclei number (z-score)” value is inactive: 0.331. Regarding `Clc1ccc(COC(Cn2ccnc2)c2ccc(Cl)cc2Cl)c(Cl)c1` (stereo unspecified) [Miconazole], the “nuclei number (z-score)” value was inactive: -1.93. With `Clc1ccc(COC(Cn2ccnc2)c2ccc(Cl)cc2Cl)c(Cl)c1` (stereo unspecified) [Miconazole Nitrate], the “nuclei number (z-score)” value was inactive: -0.93. Regarding `C=CC(=O)N1CCC(Oc2cc3c(Nc4ccc(Cl)c(Cl)c4F)ncnc3cc2OC)CC1` [Poziotinib (HM781-36B)], the “nuclei number (z-score)” value was inactive: -0.438. To `CO[C@@H](C(=O)N1Cc2[nH]nc(NC(=O)c3ccc(N4CCN(C)CC4)cc3)c2C1)c1ccccc1` belongs inactive: 0.692; to `CN1CCN(C2=Nc3cc(Cl)ccc3Nc3ccccc32)CC1` [Clozapine], inactive: 1.07; to `Cc1c(Cc2ccc3ccccc3n2)c2cc(F)ccc2n1CC(=O)O`, inactive: 0.325. `Brc1ccc([C@H]2CN3CCSC3=N2)cc1` [(-)-p-Bromotetramisole Oxalate]: the “nuclei number (z-score)” value is inactive: 0.708. `C[C@@H]1[C@H](O)[C@@H](C)/C=C/C=C/C=C/C=C/C=C/C=C/C=C/[C@H](O[C@@H]2O[C@H](C)[C@@H](O)[C@H](N)[C@@H]2O)C[C@@H]2O[C@](O)(C[C@@H](O)C[C@@H](O)[C@H](O)CC[C@@H](O)C[C@@H](O)CC(=O)O[C@H]1C)C[C@H](O)[C@H]2C(=O)O` [Amphotericin B]: the “nuclei number (z-score)” value was inactive: -0.0257.

With `CN1CCN(c2ccc(-c3ccncc3-c3cc(F)c(O)c(F)c3)cc2)CC1`, the “nuclei number (z-score)” value was inactive: 0.241.

For the compound `C[C@]12CC[C@@H]3c4ccc(O)cc4CC[C@H]3[C@@H]1CC[C@@H]2OC(=O)CCC1CCCC1` [Estradiol Cypionate], the “nuclei number (z-score)” value was inactive: 0.5. For `C[C@H](NC(=O)[C@@H](O)c1cc(F)cc(F)c1)C(=O)N[C@@H]1C(=O)N(C)c2ccccc2-c2ccccc21`, the “nuclei number (z-score)” value was inactive: -1.21. To `CC(C)N(CCCNC(=O)Nc1ccc(C(C)(C)C)cc1)C[C@H]1O[C@@H](n2ccc3c(N)ncnc32)[C@H](O)[C@@H]1O` belongs inactive: 0.484; to `C[C@H](NC(=O)Cc1cc(F)cc(F)c1)C(=O)N[C@H](C(=O)OC(C)(C)C)c1ccccc1`, inactive: 0.0255. For `CNC(CC(=O)O)C(=O)O` [NMDA (N-Methyl-D-aspartic acid)], the “nuclei number (z-score)” value is inactive: 0.459.
